Three molecules from paper PMC7865452 can be followed below.

The chains behind the UniProt entries cited, without tags or fusion partners.
UniProt O95292: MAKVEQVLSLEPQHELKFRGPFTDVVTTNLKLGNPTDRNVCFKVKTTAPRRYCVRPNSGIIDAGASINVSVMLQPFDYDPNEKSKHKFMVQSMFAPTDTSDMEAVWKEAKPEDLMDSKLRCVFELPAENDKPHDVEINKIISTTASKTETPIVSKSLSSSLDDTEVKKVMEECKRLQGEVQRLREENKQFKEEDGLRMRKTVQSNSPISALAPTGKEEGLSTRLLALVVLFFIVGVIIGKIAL
UniProt O75340: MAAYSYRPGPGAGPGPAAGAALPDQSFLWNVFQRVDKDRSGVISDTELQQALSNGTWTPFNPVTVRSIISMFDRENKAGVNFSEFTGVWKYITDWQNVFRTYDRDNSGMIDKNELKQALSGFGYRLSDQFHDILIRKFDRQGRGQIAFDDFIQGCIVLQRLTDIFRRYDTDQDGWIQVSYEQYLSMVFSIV

In test [1] the target is T1, GFP-fused CDIP1 (cell death-inducing p53 target protein 1) (human) (UniProt Q9H305).
T1 sequence: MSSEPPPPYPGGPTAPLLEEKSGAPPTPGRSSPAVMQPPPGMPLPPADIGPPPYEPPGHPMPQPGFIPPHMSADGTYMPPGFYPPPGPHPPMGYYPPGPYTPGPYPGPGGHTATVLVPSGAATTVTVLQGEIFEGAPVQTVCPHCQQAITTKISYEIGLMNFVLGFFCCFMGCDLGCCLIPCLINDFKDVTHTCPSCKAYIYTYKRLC
The test is described as follows: co-IP; cleared lysate of transfected HEK293 (HKM buffer, 0.2% Triton X-100); GST-fused GFP nanobody on glutathione beads; 10 uM CaCl2; overnight, 4 C; Western blot.

Test [2] has as its target VAPB, endogenous in HEK293 cells treated with BFA (human (endogenous in HEK293)) (UniProt O95292). The test is described as follows: co-IP; HEK293 treated with BFA (9 h); HKM buffer, 1% CHAPS; rabbit polyclonal antibody against VAPB, Protein G magnetic beads; 10 uM CaCl2; Western blot. Background: Immunoblotting shows a protein as a band on a membrane.
Test [3] addresses Apoptosis-linked gene 2 (ALG-2), endogenous in HEK293 cells (human (endogenous in HEK293)) (UniProt O75340). Description: co-IP; HEK293 treated with BFA (0.2 ug/mL, 9 h); HKM buffer, 1% CHAPS; rabbit polyclonal antibody against ALG-2, Protein G magnetic beads; 10 uM CaCl2; Western blot.
Test [4] deals with VAPB, endogenous in HEK293 cells treated with BFA (human (endogenous in HEK293)) (UniProt O95292). Description: co-IP; HEK293 treated with BFA (9 h); HKM buffer, 1% CHAPS; rabbit polyclonal antibody against VAPB, Protein G magnetic beads; 5 mM EGTA; Western blot.
For test [5], the target named is Apoptosis-linked gene 2 (ALG-2), endogenous in HEK293 cells (human (endogenous in HEK293)) (UniProt O75340). The test is described as follows: co-IP; HEK293 treated with BFA (0.2 ug/mL, 9 h); HKM buffer, 1% CHAPS; rabbit polyclonal antibody against ALG-2, Protein G magnetic beads; 5 mM EGTA; Western blot.

These are yes or no findings as the source states them, for the method shown. Binding seen in cells or lysates may run through a third protein. Some binding calls cover weakened binding; strength is not graded here. For part of these data: Where a sequence is shown, tags or fusion partners need not be part of it.

B1: Sec31A, endogenous in HEK293 cells (protein, UniProt O94979 1-1220)
chain: MKLKEVDRTAMQAWSPAQNHPIYLATGTSAQQLDATFSTNASLEIFELDLSDPSLDMKSCATFSSSHRYHKLIWGPYKMDSKGDVSGVLIAGGENGNIILYDPSKIIAGDKEVVIAQNDKHTGPVRALDVNIFQTNLVASGANESEIYIWDLNNFATPMTPGAKTQPPEDISCIAWNRQVQHILASASPSGRATVWDLRKNEPIIKVSDHSNRMHCSGLAWHPDVATQMVLASEDDRLPVIQMWDLRFASSPLRVLENHARGILAIAWSMADPELLLSCGKDAKILCSNPNTGEVLYELPTNTQWCFDIQWCPRNPAVLSAASFDGRISVYSIMGGSTDGLRQKQVDKLSSSFGNLDPFGTGQPLPPLQIPQQTAQHSIVLPLKKPPKWIRRPVGASFSFGGKLVTFENVRMPSHQGAEQQQQQHHVFISQVVTEKEFLSRSDQLQQAVQSQGFINYCQKKIDASQTEFEKNVWSFLKVNFEDDSRGKYLELLGYRKEDLGKKIALALNKVDGANVALKDSDQVAQSDGEESPAAEEQLLGEHIKEEKEESEFLPSSGGTFNISVSGDIDGLITQALLTGNFESAVDLCLHDNRMADAIILAIAGGQELLARTQKKYFAKSQSKITRLITAVVMKNWKEIVESCDLKNWREALAAVLTYAKPDEFSALCDLLGTRLENEGDSLLQTQACLCYICAGNVEKLVACWTKAQDGSHPLSLQDLIEKVVILRKAVQLTQAMDTSTVGVLLAAKMSQYANLLAAQGSIAAALAFLPDNTNQPNIMQLRDRLCRAQGEPVAGHESPKIPYEKQQLPKGRPGPVAGHHQMPRVQTQQYYPHGENPPPPGFIMHGNVNPNAAGQLPTSPGHMHTQVPPYPQPQPYQPAQPYPFGTGGSAMYRPQQPVAPPTSNAYPNTPYISSASSYTGQSQLYAAQHQASSPTSSPATSFPPPPSSGASFQHGGPGAPPSSSAYALPPGTTGTLPAASELPASQRTGPQNGWNDPPALNRVPKKKKMPENFMPPVPITSPIMNPLGDPQSQMLQQQPSAPVPLSSQSSFPQPHLPGGQPFHGVQQPLGQTGMPPSFSKPNIEGAPGAPIGNTFQHVQSLPTKKITKKPIPDEHLILKTTFEDLIQRCLSSATDPQTKRKLDDASKRLEFLYDKLREQTLSPTITSGLHNIARSIETRNYSEGLTMHTHIVSTSNFSETSAFMPVLKVVLTQANKLGV
As for B1, the binding result in test [1] was “no binding”.

B2: Peflin, endogenous in HEK293 cells (protein, UniProt Q9UBV8 1-284)
chain: MASYPYRQGCPGAAGQAPGAPPGSYYPGPPNSGGQYGSGLPPGGGYGGPAPGGPYGPPAGGGPYGHPNPGMFPSGTPGGPYGGAAPGGPYGQPPPSSYGAQQPGLYGQGGAPPNVDPEAYSWFQSVDSDHSGYISMKELKQALVNCNWSSFNDETCLMMINMFDKTKSGRIDVYGFSALWKFIQQWKNLFQQYDRDRSGSISYTELQQALSQMGYNLSPQFTQLLVSRYCPRSANPAMQLDRFIQVCTQLQVLTEAFREKDTAVQGNIRLSFEDFVTMTASRML
B2: in test [1], the binding entry was “binds”.

B3: CDIP1, endogenous in HEK293 cells treated with BFA (protein, UniProt Q9H305 1-208)
chain: MSSEPPPPYPGGPTAPLLEEKSGAPPTPGRSSPAVMQPPPGMPLPPADIGPPPYEPPGHPMPQPGFIPPHMSADGTYMPPGFYPPPGPHPPMGYYPPGPYTPGPYPGPGGHTATVLVPSGAATTVTVLQGEIFEGAPVQTVCPHCQQAITTKISYEIGLMNFVLGFFCCFMGCDLGCCLIPCLINDFKDVTHTCPSCKAYIYTYKRLC
As for B3, the binding entry is on record as “binds” in test [2], “binds” in test [3], “binds” in test [4] and “no binding (condition: with 5 mM EGTA)” in test [5].
